Toxic doses and inconclusive results are not listed. Some entries of the source have several records that differ or are many. This list holds those alone. The source may hold further records. The records of an entry repeat one measurement in other runs, samples, wells, individuals or studies. A tag in brackets gives the origin of a value. Letters count within one entry.
Test system: CD2F1 mice, L1210 leukemia ip, survival T/C
Assay: NCI In Vivo Anticancer Drug Screen. Data for tumor model L1210 Leukemia (intraperitoneal) in CD2F1 (CDF1) mice
Conditions: higher = longer survival
Method in brief: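 Mice carrying a transplanted tumor received test compound or vehicle alone. The value is the measurement in the treated group divided by that in the vehicle-treated control group.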

Cn1cnc([N+](=O)[O-])c1[Se]c1nc(N)nc2c1ncn2C1OC(CO)C(O)C1O (stereo not drawn)
T/C (endpoint: mean survival time, dose: 32.0 mg/kg/injection, schedule: Q01DX009 (ip), vehicle: distilled water + Tween-80): 111 % of control and 150 % of control

O=NN(CCCl)C(=O)Oc1cc(Cl)c(Cl)cc1Cl
T/C (endpoint: median survival time, dose: 25.0 mg/kg/injection, schedule: Q01DX009 (ip), vehicle: Klucel (hydroxypropylcellulose) (HPC)): 120 % of control and 164 % of control | T/C (endpoint: median survival time, dose: 100.0 mg/kg/injection, schedule: Q01DX009 (ip), vehicle: Klucel (hydroxypropylcellulose) (HPC)): 90 % of control and 150 % of control

CC(=O)Nc1cccc(N=NN(C)C)c1
T/C (endpoint: mean survival time, dose: 100.0 mg/kg/injection, schedule: Q01DX009 (ip), vehicle: Klucel (hydroxypropylcellulose) (HPC)): 122 % of control and 164 % of control

O=c1n[n+]([O-])ccn1C1OC(CO)C(O)C1O (stereo not drawn)
T/C (endpoint: median survival time, dose: 450.0 mg/kg/injection, schedule: Q01DX009 (ip), vehicle: saline): 116 % of control and 168 % of control

COC(=O)Nc1nc2ccc(C3(c4ccc(F)cc4)OCCO3)cc2[nH]1
T/C (endpoint: mean survival time, dose: 50.0 mg/kg/injection, schedule: Q01DX009 (ip), vehicle: saline): 108 % of control, 120 % of control, 166 % of control

COc1ccc(OC)c(NC(=O)Nc2cc(Cl)c(OC)cc2OC)c1
T/C (endpoint: mean survival time, dose: 400.0 mg/kg/injection, schedule: Q01DX009 (ip), vehicle: saline with Tween-80): 94 % of control and 157 % of control

Cc1ccc(NCC2(/N=C/c3ccccc3)OC(CO)C(O)C2O)cc1 (stereo not drawn)
T/C (endpoint: mean survival time, dose: 400.0 mg/kg/injection, schedule: Q01DX009 (ip), vehicle: Klucel (hydroxypropylcellulose) (HPC)): 124 % of control and 155 % of control

O=C(NCCCN1CC1)C(=O)NCCCN1CC1
T/C (endpoint: mean survival time, dose: 6.25 mg/kg/injection, schedule: Q01DX009 (ip), vehicle: saline): 113 % of control and 166 % of control

CCOC(=O)c1ccc(N)cc1
T/C (endpoint: mean survival time, dose: 100.0 mg/kg/injection, schedule: Q01DX001 (ip), vehicle: saline with Tween-80): 102 % of control and 182 % of control

O=C(O)c1[nH]c(=O)[nH]c(=O)c1F
T/C (endpoint: mean survival time, dose: 10.0 mg/kg/injection, schedule: Q01DX009 (ip), vehicle: saline): 124 % of control and 166 % of control

Cc1c2ccncc2c(C)c2c1[nH]c1ccc(O)cc12
T/C (endpoint: mean survival time, dose: 25.0 mg/kg/injection, schedule: Q04DX003 (ip), vehicle: water): 114 % of control and 159 % of control

S=P(N1CC1)(N1CC1)N1CC1
T/C (endpoint: mean survival time, dose: 22.4 mg/kg/injection, schedule: Q01DX001 (ip), vehicle: saline): 104 % of control and 152 % of control

O=CC(NC(=O)N(CCCl)N=O)C(O)C(O)C(O)CO (stereo not drawn)
T/C (endpoint: mean survival time, dose: 2.5 mg/kg/injection, schedule: Q04DX002 (ip), vehicle: saline): 124 % of control and 150 % of control | T/C (endpoint: mean survival time, dose: 24.0 mg/kg/injection, schedule: Q01DX001 (ip), vehicle: saline): 551 % of control, 597 % of control [sample A] and 239 % of control, 552 % of control, 804 % of control [sample B] | T/C (endpoint: mean survival time, dose: 81.0 mg/kg/injection, schedule: Q01DX001 (ip), vehicle: saline): 87 % of control and 491 % of control | T/C (endpoint: mean survival time, dose: 120.0 mg/kg/injection, schedule: Q01DX001 (ip), vehicle: saline): 94 % of control and 284 % of control

NC(=S)N/N=C/c1ccc(O)cn1
T/C (endpoint: mean survival time, dose: 100.0 mg/kg/injection, schedule: Q01DX009 (ip), vehicle: saline): 109 % of control, 179 % of control, 200 % of control

CN(C)CCN1C(=O)c2cccc3cc([N+](=O)[O-])cc(c23)C1=O
T/C (endpoint: mean survival time, dose: 6.0 mg/kg/injection, schedule: Q01DX009 (ip), vehicle: saline with Tween-80): 115 % of control and 160 % of control

[Cl][Pt+2][Cl].[NH-]c1ccc(Cl)cc1[NH-]
T/C (endpoint: mean survival time, dose: 20.0 mg/kg/injection, schedule: Q01DX009 (ip), vehicle: saline with Tween-80): 122 % of control and 181 % of control

CN(CCO)C1=C(N2CC2)C(=O)C(N(C)CCO)=C(N2CC2)C1=O
T/C (endpoint: mean survival time, dose: 2.0 mg/kg/injection, schedule: Q01DX009 (ip), vehicle: saline): 100 % of control and 158 % of control

Cc1ccc(S(=O)(=O)N/N=C/C(=O)O)cc1
T/C (endpoint: mean survival time, dose: 50.0 mg/kg/injection, schedule: Q01DX009 (ip), vehicle: other): 118 % of control and 153 % of control

CCOC(=O)C(CC(C)C)NC(=O)C(Cc1ccc(N(CCCl)CCCl)cc1)NC(C)=O (stereo not drawn)
T/C (endpoint: mean survival time, dose: 16.0 mg/kg/injection, schedule: Q04DX003 (ip), vehicle: saline with Tween-80): 106 % of control, 107 % of control, 114 % of control [sample A] and 94 % of control [sample B] and 124 % of control [sample C] | T/C (endpoint: mean survival time, dose: 32.0 mg/kg/injection, schedule: Q04DX003 (ip), vehicle: saline with Tween-80): 107 % of control, 116 % of control [sample A] and 92 % of control [sample B] and 153 % of control [sample C] | T/C (endpoint: mean survival time, dose: 64.0 mg/kg/injection, schedule: Q04DX003 (ip), vehicle: saline with Tween-80): 115 % of control, 158 % of control [sample A] and 97 % of control [sample B] | T/C (endpoint: mean survival time, dose: 256.0 mg/kg/injection, schedule: Q01DX001 (ip), vehicle: saline with Tween-80): 150 % of control [sample A] and 106 % of control [sample B]

CCNCC(=O)O[C@]1(CC)C(=O)OCc2c1cc1n(c2=O)Cc2cc3ccccc3nc2-1
T/C (endpoint: median survival time, dose: 60.0 mg/kg/injection, schedule: Q04DX002 (ip), vehicle: saline): 107 % of control and 172 % of control

[Cl][Pt+2][Cl].[NH-]CC1(C[NH-])CCC1
T/C (endpoint: mean survival time, dose: 6.25 mg/kg/injection, schedule: Q04DX003 (ip), vehicle: saline): 111 % of control and 167 % of control

— PubChem BioAssay AID256 (DTP/NCI, 2004)
